Consider 43 compounds from ChEMBL document CHEMBL4888484, “Replenishing the malaria drug discovery pipeline: Screening and hit evaluation of the MMV Hit Generation Library 1 (HGL1) against asexual blood stage Plasmodium falciparum ,using a nano luciferase reporter read-out” (2022).

Molecules are shown by their SMILES. In all, about 150,000 compounds went through this assay and about 540 (0.36%) showed an effect of 50% or more. The list shows a part of the results.

This assay concerns Plasmodium falciparum. In words: Primary screen in NF54 nanoGlo assay, in single point, at 2uM, 72h; a lower Z score goes with more inhibition. The assay is classed as functional, Erythrocyte. The settings on record: timepoint 72 hour.
With `O=C(c1ccccc1OCC1CC1)N1CC[C@]2(CCOC2)C1`, the % Inhibition (commonly the drop in the measured response relative to a control, in per cent) is -4% and the Z score is listed as 0.48.

`Cc1cc(-c2nc(-c3ccc(F)cc3)no2)c(C)n1CC(=O)NCC(C)C`: the “% Inhibition” value is on record as -10% and the Z score is reported as 2.01.

As to `CCOC(=O)c1ncn(CCOC)c1N`, the “% Inhibition” value is on record as 4% and the Z score is listed as -0.49.

Take `O=C1NC[C@@H]2CCC[C@@H](CCOc3ccccc3C(=O)N3CCN(Cc4ccc5c(c4)OCO5)C[C@@H]13)O2`: the “% Inhibition” value is -11% and the Z score is reported as 1.41.

Turning to `NC(=O)NCc1cn(C2CCN(C(=O)C3CCCCCC3)CC2)nn1`, the “% Inhibition” value is listed as -6% and the Z score worked out at 1.21.

`Cc1nccn1CC(=O)N1CCC[C@@]2(CCC(=O)N(Cc3cccnc3)C2)C1`: the “% Inhibition” value was determined as 3% and the Z score was -0.35.

For `CC(C)=CCC[C@H](C)N1CCC(=O)N(Cc2ccccn2)CC1`, the “% Inhibition” value was 3% and the Z score is on record as -0.43.

On to `CN(C[C@H]1COc2ccccc2O1)C(=O)c1ccc(N(C)C)cc1`, for which the “% Inhibition” value was -3% and the Z score is reported as 0.37.

With `CCOc1ncccc1CN[C@H]1CCCN(CC)C1`, the “% Inhibition” value is -10% and the Z score came out at 1.15.

As to `O=C(NC1CC(O)C(CO)C1)c1cc2ccccc2o1` (stereo unspecified), the “% Inhibition” value is given as -9% and the Z score is 1.45.

As for `CONC(=O)C=Cc1ccc2c(c1)CCCN2C`, the “% Inhibition” value was -13% and the Z score came out at 1.75.

On to `O=C(Cn1ccnn1)N[C@H]1C[C@@H](c2cc(N3CC[C@H](O)C3)ncn2)C1`, for which the “% Inhibition” value came out at 0% and the Z score is recorded as 0.01.

With `CN1C(=O)N(c2ccsc2)C(=O)C1(C)C`, the “% Inhibition” value is -7% and the Z score is given as 1.27.

Take `O=C(NCCOc1ccc(Cl)cn1)NCC1CCOCC1`: the “% Inhibition” value was -7% and the Z score is 0.93.

`O=C(NCc1ccccc1OC1CCC1)c1nc(=O)[nH][nH]1`: the “% Inhibition” value was -2% and the Z score is 0.38.

As to `O=C(CN1CCC(c2ccc(F)c(F)c2)CC1)N1CCOCC1`, the “% Inhibition” value was -8% and the Z score amounted to 1.24.

For `C[C@@]1(NC(=O)C2CC(F)(F)C2)CC=CCC1`, the “% Inhibition” value is recorded as -11% and the Z score turned out to be 2.24.

With `O=C(NCC1(Cn2ccnc2)CC1)N1CCCC[C@@H]1CO`, the “% Inhibition” value is recorded as -5% and the Z score amounted to 0.96.

Regarding `COC(=O)Cn1cc(CNC(=O)c2cc3c(C)cc(C)cc3[nH]2)nn1`, the “% Inhibition” value is on record as -3% and the Z score is listed as 0.42.

For the compound `Cc1noc(CN2CCC(N3CCN(c4cccc(C(F)(F)F)c4)CC3)CC2)n1`, the “% Inhibition” value was -2% and the Z score was found to be 0.23.

For `Cc1cc(C(=O)NCC[C@H]2CCOC2)c(=O)n(C)c1C`, the “% Inhibition” value is given as -5% and the Z score is given as 0.72.

Consider `CC(C)Cc1cc(C(=O)O[C@H]2CCc3cccnc32)[nH]n1`, for which the “% Inhibition” value is given as -4% and the Z score came to 0.45.

As for `CNC(=O)[C@@H]1C[C@H](Oc2ccccc2)CN1C1CCN(C(=O)COCCOC)CC1`, the “% Inhibition” value worked out at 1% and the Z score is recorded as -0.19.

Turning to `Cc1nc([C@H](C)Nc2ccc3cc[nH]c3n2)cs1`, the “% Inhibition” value is on record as 2% and the Z score is listed as -0.41.

Take `CC1CC(C(=O)N2CCC(Cc3ccccc3)CC2)CCC1=O` (stereo unspecified): the “% Inhibition” value is reported as -12% and the Z score is listed as 1.22.

Consider `CC(=O)c1ccc(S(=O)(=O)NC(=O)c2cncc(N3CCOCC3)c2)cc1`, for which the “% Inhibition” value was -5% and the Z score is on record as 0.63.

In the case of `CCCCOCC(=O)Nc1cc(C(C)(C)C)no1`, the “% Inhibition” value was -5% and the Z score is on record as 0.97.

`COc1ccccc1[C@@H](CC(N)=O)c1c(O)n[nH]c1Cc1ccc2c(c1)CCO2`: the “% Inhibition” value is listed as 1% and the Z score is recorded as -0.1.

For `Cc1ccc(Cl)c2ccc(N3CCS(=O)(=O)CC3)nc12`, the “% Inhibition” value is -6% and the Z score was 0.85.

Consider `COc1ccc(-c2nnc(C)o2)cc1NC(=O)c1ccc(=O)n(C)c1`, for which the “% Inhibition” value is recorded as -18% and the Z score is listed as 2.02.

Turning to `CC(=O)N1CCc2cc(NS(=O)(=O)c3ccc4c(c3)OCCO4)ccc21`, the “% Inhibition” value was -1% and the Z score was 0.14.

Turning to `Cc1ccc(C)c(/N=C2\CCCN2C)c1C#N`, the “% Inhibition” value amounted to 29% and the Z score is -3.28.

As for `CCc1nn(C)c(NC(=O)c2ccc(CN3CCNC(=O)[C@@H]3C)cc2)c1CC`, the “% Inhibition” value is on record as -3% and the Z score is 0.38.

As for `CO[C@@H](CNS(=O)(=O)CC(C)(F)F)c1ccccc1Cl`, the “% Inhibition” value is -2% and the Z score turned out to be 0.35.

As for `Cc1ccc2nc(NC(=O)CCn3ccc(C)n3)sc2c1`, the “% Inhibition” value is on record as 5% and the Z score is reported as -0.95.

Take `CN(C)C1(CNC(=O)Nc2cc(-c3cc(F)cc(F)c3)nn2C)CC1`: the “% Inhibition” value is -9% and the Z score was 1.46.

For `CC[C@](O)(CCCO)CNC(=O)c1cccc(N)n1`, the “% Inhibition” value is listed as -9% and the Z score turned out to be 1.03.

For the compound `CCCCN=C(NCCc1ccc(F)cc1)N1CCC(O)CC1`, the “% Inhibition” value turned out to be 0% and the Z score is on record as -0.03.

Take `COc1ccc(N2C(=O)[C@H]3C(c4cn(C)nc4C)=NO[C@H]3C2=O)cc1`: the “% Inhibition” value is on record as -5% and the Z score worked out at 0.6.

For `CC(C)(C)c1nc(CN2CCN(C(=O)NC3CC3)CC2)cs1`, the “% Inhibition” value is -3% and the Z score is reported as 0.32.

Regarding `CCOCCN1C[C@@](C)(Cc2ccc3c(c2)OCO3)CCC1=O`, the “% Inhibition” value was -18% and the Z score amounted to 2.47.

In the case of `CN1CCCC(CNC(=O)Cc2cscn2)C1c1ccc(C(F)(F)F)cc1` (stereo unspecified), the “% Inhibition” value is listed as -1% and the Z score was 0.15.

Turning to `COc1ccc2c(c1)[C@H](C)N(C(=O)c1cccc(-c3nc(C)nn3C)c1)CC2`, the “% Inhibition” value was -2% and the Z score is 0.29.
